Assay results taken from publication PMC4336329 (PLoS ONE, 2015).
Among all 310,000 compounds or so, about 2,200 (0.71%) showed an effect of 50% or more. The effect is printed as a negative number. The list shows a part of the results.

Biological target: human ether-à-go-go-related gene (hERG) potassium channel (human, UniProt Q12809)
Assay: primary screen, population patch clamp on CHO cells stably expressing hERG

human ether-à-go-go-related gene (hERG) potassium channel, sequence (Q12809 whole entry, looked up): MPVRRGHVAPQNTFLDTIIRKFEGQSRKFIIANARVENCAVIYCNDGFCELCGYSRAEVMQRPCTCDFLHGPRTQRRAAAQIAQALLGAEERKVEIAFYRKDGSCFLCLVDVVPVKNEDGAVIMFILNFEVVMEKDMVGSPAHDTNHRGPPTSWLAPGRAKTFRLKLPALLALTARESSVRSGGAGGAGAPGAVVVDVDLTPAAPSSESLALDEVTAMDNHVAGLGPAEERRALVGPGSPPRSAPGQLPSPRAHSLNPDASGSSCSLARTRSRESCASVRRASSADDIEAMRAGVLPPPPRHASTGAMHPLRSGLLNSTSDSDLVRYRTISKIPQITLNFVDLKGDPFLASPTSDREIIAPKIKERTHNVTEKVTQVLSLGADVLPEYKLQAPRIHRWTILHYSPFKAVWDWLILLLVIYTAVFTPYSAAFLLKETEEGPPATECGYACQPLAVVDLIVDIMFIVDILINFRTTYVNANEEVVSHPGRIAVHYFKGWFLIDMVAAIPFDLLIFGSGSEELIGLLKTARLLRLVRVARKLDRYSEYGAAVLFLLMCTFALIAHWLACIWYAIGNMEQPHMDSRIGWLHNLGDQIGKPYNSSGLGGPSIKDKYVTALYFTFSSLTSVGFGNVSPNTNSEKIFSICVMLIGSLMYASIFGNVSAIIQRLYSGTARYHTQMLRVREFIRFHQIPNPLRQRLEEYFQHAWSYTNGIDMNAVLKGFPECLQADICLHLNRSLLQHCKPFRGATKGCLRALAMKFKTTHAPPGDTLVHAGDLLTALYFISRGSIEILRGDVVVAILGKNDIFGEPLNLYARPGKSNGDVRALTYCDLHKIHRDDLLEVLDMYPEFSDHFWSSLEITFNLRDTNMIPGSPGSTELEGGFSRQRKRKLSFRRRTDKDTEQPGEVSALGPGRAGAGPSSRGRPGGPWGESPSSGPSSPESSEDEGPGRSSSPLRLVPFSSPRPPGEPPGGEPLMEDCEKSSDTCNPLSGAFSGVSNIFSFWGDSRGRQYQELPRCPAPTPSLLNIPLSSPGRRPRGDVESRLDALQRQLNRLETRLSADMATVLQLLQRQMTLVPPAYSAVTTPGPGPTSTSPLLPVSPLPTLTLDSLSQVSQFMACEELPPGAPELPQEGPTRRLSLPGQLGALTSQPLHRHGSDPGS

| Compound | hERG current change (%, negative = inhibition) at 1uM |
| --- | --- |
| O=C1C=C(O)C(n2cncn2)C(c2ccc(F)cc2)C1 (stereo not drawn) | -9.66% |
| c1ccc(-c2onc(-c3ccco3)c2-c2ccc3c(c2)OCO3)cc1 | 7.39% |
| CCCCc1nnc(NC(=O)C2=COCCO2)s1 | 9.73% |
| CCNC(=S)N1CCC(c2nc3cc(C)c(C)cc3[nH]2)CC1.O=C(O)C(=O)O | 7.77% |
| C=C[C@@H]1c2cc(C)ccc2N(S(=O)(=O)c2ccc(C)cc2)[C@H](c2ccccc2C(F)(F)F)C1(C#N)C#N | 12.5% |
| CCn1cc(CCCC(=O)NCc2cccc(OC)c2)c2ccccc21 | 13.3% |
| O=C(c1cc(F)cc2c1OCOC2)N1CCN(c2ccc(F)cc2)CC1 | 6.06% |
| O=[N+]([O-])c1cc(Cl)cc(/C=N/NC(=S)Nc2ccc(S(=O)(=O)N3CCOCC3)cc2)c1O | 6.18% |
| Cc1cc(C)n(-c2cc(N3CCN(S(=O)(=O)c4ccc(C)c(C)c4)CC3)ccc2[N+](=O)[O-])n1 | 18% |
| Cc1nn(C(C)CC(=O)O)c(C)c1C (stereo not drawn) | 10.3% |
| Cc1ccc(Cl)c(Cn2cnc3c(cnn3C(C)(C)C)c2=O)c1F | 18.9% |
| CNC(=O)c1c(Cl)cnn1-c1ccc(F)cc1 | 8.38% |
| COCCn1c(SCC(=O)Nc2c(C)n(C)n(-c3ccccc3)c2=O)nc2ccccc2c1=O | 1.25% |
| C[C@@H]1CC2OC(=O)[C@@]3(C)C(=O)CC[C@@](C)(C23)[C@@]1(O)CCc1ccoc1 (stereo partly drawn) | 12.8% |
| C1CSC2(N1)C1CC3CC(C1)CC2C3.Cl (stereo not drawn) | 6.29% |
| O=c1cc(-c2ccccc2)n(S(=O)(=O)c2ccc3ccccc3c2)o1 | 4.78% |
| N#CCCN1CCN(C(CNS(=O)(=O)c2ccc(Cl)cc2)c2ccccc2)CC1 (stereo not drawn) | -10.8% |
| CC(C)Oc1ccc(Cc2c(O)nc(NCCCN(C)C)[nH]c2=O)cc1 | 5.21% |
| COc1ccc(N(C)C(=O)c2oc(=O)c3ccccc3c2-c2ccc(C)cc2)c(OC)c1 | 3.27% |
| CC(Oc1ccc(C(C)(C)C)cc1)C(=O)NC1CC(C)(C)NC(C)(C)C1 (stereo not drawn) | 2.21% |
| C(=N\Nc1ncnc2ccccc12)/c1ccccc1 | 6.49% |
| CCCCC1=NN(C(=O)c2ccncc2)C(O)(C(F)(F)F)C1 (stereo not drawn) | 14.7% |
| CC(=O)Nc1ccc(S(=O)(=O)NCC(=O)OCC(=O)Nc2sccc2C(N)=O)cc1 | 5.87% |
| CCOC(=O)COc1ccc(C2NC(C(=O)O)CS2)cc1 (stereo not drawn) | 17.6% |
